Variants at the background level are over-represented here.
B1: tRNA (parent)
chain: CUCUCGGUAGCCAAGUUGGUUUAAGGCGCAAGACUUUAAUUUAUCACUACGAAAUCUUGAGAUCGGGCGUUCGACUCGCCCCCGGGAGAUUUUUUCCUCGAGCAA

Variants of: B1
Assay: nonsense suppression (GFP-seq) (ratio to wild type); higher = more function; SUP4oc tRNA, yeast GFP reporter sort-seq
Method in brief: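 Yeast carrying genome-integrated SUP4oc tRNA variants from a library with ~3% random mutations were grown in raffinose/galactose medium with 80 mg/L adenine. Each strain also carried a galactose-driven GFP ochre reporter and RFP. Cells were sorted into GFP/RFP bins, and each bin was Illumina-sequenced (phred ≥30). Nonsense suppression (GFPSEQ) is the bin median GFP/RFP, weighted by each variant's estimated cell share per bin, relative to wild-type SUP4oc; variants needed ≥100 reads and ≥30 cells.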

Row | Variant | nonsense suppression
1 | U17A G32A | ≤ 0.026
2 | U17C U55C | 0.444
3 | U17C G69A | ≤ 0.026
4 | G18A G86U | ≤ 0.026
5 | G18A G86C | ≤ 0.026
6 | G18U A30C A33U | ≤ 0.026
7 | U17A G18U A23G C80A G88U | ≤ 0.026
8 | U17A G78U | 0.186
9 | U17C U71A | ≤ 0.026
10 | U17C A87U | ≤ 0.026
11 | U17C A87C | ≤ 0.026
12 | G18U G66U | ≤ 0.026
13 | G18U G69C | ≤ 0.026
14 | U17C A62C G84C | ≤ 0.026
15 | U17A C81U G88C | ≤ 0.026
16 | G18U A30G G85A | ≤ 0.026
17 | U17A G65A | ≤ 0.026
18 | G18A G67U U70C | ≤ 0.026
19 | G18U A60U U76G | ≤ 0.026
20 | U17G G19A G66U | ≤ 0.026
21 | U17C G28U G69A C82A | ≤ 0.026
22 | G18C A54G U55G C75G | ≤ 0.026
23 | G18C U63A | ≤ 0.026
24 | U17C G19C | ≤ 0.026

Row | Variant | nonsense suppression
25 | G18C G65C | ≤ 0.026
26 | G18C A30C G86C | ≤ 0.026
27 | G18U U22G A31U G69C | ≤ 0.026
28 | U17C A24U G32C G59C G65C | ≤ 0.026
29 | G18A U35G G67U G86C | ≤ 0.026
30 | G18U C34G | ≤ 0.026
31 | U17C A24U A54C | ≤ 0.026
32 | U17G U22G | 1.04
33 | U17C G28C C75G | 1.02
34 | G18U U22A G32C A60C | ≤ 0.026
35 | U17G G78C | ≤ 0.026
36 | G18U A23G A24G | ≤ 0.026
37 | G18A C82G | ≤ 0.026
38 | G19A A33G G85U | ≤ 0.026
39 | U17G U21G G32U G61C | ≤ 0.026
40 | G18U A24U C75U | ≤ 0.026
41 | G18A A30U G59U A60C G61U U71C | ≤ 0.026
42 | U17C C82G | ≤ 0.026
43 | G18U U22G | ≤ 0.026
44 | G18U U22A | ≤ 0.026
45 | U17G C80G | ≤ 0.026
46 | G18U U22G A31C G73A A74U | ≤ 0.026
47 | U17A G25U C34U | ≤ 0.026
48 | U17C G28C A54U | 0.219

Row | Variant | nonsense suppression
49 | G18A A23U A62U C77A | ≤ 0.026
50 | U17G U20G G65A G67U | ≤ 0.026
51 | G18C G78C | ≤ 0.026
52 | G18C C56A | ≤ 0.026
53 | U17G U71C G78C | ≤ 0.026
54 | U17A U55A | ≤ 0.026
55 | U17C U22A | 0.758
56 | G18C U22C C34U U35G | ≤ 0.026
57 | G18U U55A G66U G69A G88C | ≤ 0.026
58 | G18C C27U | ≤ 0.026
59 | U17C A24U C68G | ≤ 0.026
60 | G18A C56A U71C G85A | ≤ 0.026
61 | G18U U35C | ≤ 0.026
62 | U17C A62G G78U | ≤ 0.026
63 | U17C G28U C29A C79A G85C | ≤ 0.026
64 | U17A G18C | ≤ 0.026
65 | U17C A30U G66A C77A | ≤ 0.026
66 | U17G A54C | 0.64
67 | U17G A54U | 1.16
68 | G18C G84C | ≤ 0.026
69 | U17A G26A | ≤ 0.026
70 | G18A U70A | ≤ 0.026
71 | G18A C29G G69C | ≤ 0.026
72 | G18C A24G G73U | ≤ 0.026

Row | Variant | nonsense suppression
73 | G18C U35A | ≤ 0.026
74 | G18A G32C | ≤ 0.026
75 | G18A G32U | ≤ 0.026
76 | G18C A24C C56A | ≤ 0.026
77 | G18A U63G G67U G73C | ≤ 0.026
78 | G18U C56A G69C | ≤ 0.026
79 | U17G A33G C56G | ≤ 0.026
80 | U17C A24G | 0.0323
81 | U17G A60C C81A A87U | ≤ 0.026
82 | U17C C34G C81A | ≤ 0.026
83 | G18U U21C A24G C34U U55C | ≤ 0.026
84 | G18U A33U C56A | ≤ 0.026
85 | G18A C79A G86A | ≤ 0.026
86 | U17C A23G G28A C81U | ≤ 0.026
87 | U17G A24G U70A | ≤ 0.026
88 | G18U U57A | ≤ 0.026
89 | G18U U57C | ≤ 0.026
90 | G18C A30U A89U | ≤ 0.026
91 | U17A G59U | ≤ 0.026
92 | U17G G25C A31G G78C A87U | ≤ 0.026
93 | G18C G69C C82G | ≤ 0.026
94 | U17C A54G A62U | ≤ 0.026
95 | G18A A24G A30U G66U | ≤ 0.026
96 | U17C U22C A60G | 0.348

Row | Variant | nonsense suppression
97 | U17G G73C | ≤ 0.026
98 | U17A G59C C80U | ≤ 0.026
99 | G18C U21A | ≤ 0.026
100 | U17A U21A G73C | ≤ 0.026
101 | U17C A62G U70C | ≤ 0.026
102 | U17G U55A | ≤ 0.026
103 | U17G C56G | ≤ 0.026
104 | G18A A23U | ≤ 0.026
105 | U17A G18C A87C | ≤ 0.026
106 | U17A G28A G85A | 1.02
107 | U17G G66A C80A | ≤ 0.026
108 | U17C U70G | ≤ 0.026
109 | G18U G88C | ≤ 0.026
110 | U17G G28C U70C | ≤ 0.026
111 | U17C C34U U55A | ≤ 0.026
112 | U17G A23C C27U G67C | ≤ 0.026
113 | G18U C80U | ≤ 0.026
114 | G18A C27G | ≤ 0.026
115 | U17G A31G | 1.15
116 | U17C A30G U58G | ≤ 0.026
117 | U17G A62G | ≤ 0.026
118 | U17C G59C G66U C68A | ≤ 0.026
119 | U17A G18A U21G A60C C80A | ≤ 0.026
120 | U17C C29U A33U C79G | ≤ 0.026

Row | Variant | nonsense suppression
121 | G18U A87U | ≤ 0.026
122 | G18U U71G C81A | ≤ 0.026
123 | U17C G69A G78U A87U | ≤ 0.026
124 | U17G G28A C64G | ≤ 0.026
125 | U17G G67C G84U A87U | ≤ 0.026
126 | G19A A23C G85U | ≤ 0.026
127 | U17C U22G U57C | ≤ 0.026
128 | U17C C27A | ≤ 0.026
129 | G18U G67C | ≤ 0.026
130 | G18C G65C C82A | ≤ 0.026
131 | U17C G65C | ≤ 0.026
132 | U17C A31C C64U | ≤ 0.026
133 | G18A U63C U71A | ≤ 0.026
134 | G18A A24G | ≤ 0.026
135 | U17A U35G G66A G67U | ≤ 0.026
136 | U17G C82A | ≤ 0.026
137 | G18C G26U A62C G67C | ≤ 0.026
138 | G18C G86C | ≤ 0.026
139 | G18C G86A | ≤ 0.026
140 | G18C G67A G69U | ≤ 0.026
141 | G18U U57G A60U G85A | ≤ 0.026
142 | U17G A30U G66C C82U | ≤ 0.026
143 | G18C C72U A74G | ≤ 0.026
144 | U17G A24G U57A C80A | ≤ 0.026

Row | Variant | nonsense suppression
145 | G18U A30U G78U | ≤ 0.026
146 | G18A C56G U58G U71G C77U | ≤ 0.026
147 | G18C C29G G61C G67A U76G | ≤ 0.026
148 | G18C G59C C72G | ≤ 0.026
149 | U17A G66C | ≤ 0.026
150 | G18C G67C G85C | ≤ 0.026
151 | G18U U35A G85U | ≤ 0.026
152 | G18U U71A A89G | ≤ 0.026
153 | U17C G26U | ≤ 0.026
154 | U17G G59C G65A | ≤ 0.026
155 | U17A G84U | ≤ 0.026
156 | U17G U71G | ≤ 0.026
157 | G19A A24G | ≤ 0.026
158 | G18U U22G U58G | ≤ 0.026
159 | U17C C72G | ≤ 0.026
160 | U17C C72A | ≤ 0.026
161 | U17G A54U C64G A89U | ≤ 0.026
162 | G18C A62U | ≤ 0.026
163 | G18C U70C C81G | ≤ 0.026
164 | U17G A33U G59A G88A | ≤ 0.026
165 | U17G A33G A60U A74U | ≤ 0.026
166 | G18U A33G U76C G78A G85A | ≤ 0.026
167 | U17C G86A A87C | ≤ 0.026

From the RNAGym collection of RNA variant scans (doi:10.1101/gad.245936.114)
